Measurements from PubChem BioAssay AID1963576 (National Center for Advancing Translational Sciences (NCATS), 2024).
The whole screen tested about 46,000 compounds, of which about 60 (0.1%) were called active. Roughly 3% stayed inconclusive and do not appear here. The call rests on the fitted dose curve; in most records, active means well fitted inhibition curve with a large enough effect; inconclusive means small, poorly fitted or top-dose-only effect; inactive means no such curve, though single readings can be large or run the other way. Some of the results follow.

Test: Primary qHTS assay for Inhibitors of ovarian cancer metastasis using an organotypic tumor microenvironment (TME) model. Further: nearly all actives have a fitted effect of over 65% in size.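 On activity change, negative = inhibition: plate controls were DMSO wells for no effect and tomatine positive control wells for full effect.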
Conditions: SKOV3ip1-GFP adhesion/invasion on 3D omental model, fluorescence; series mostly up to 45.8 µM; activity change, negative = inhibition: at the top concentration
How it was run: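 A 3D layer of primary human omental fibroblasts, mesothelial cells, fibronectin and collagen I, grown 48 hr, received SKOV3ip1-GFP cells in serum-free medium plus compounds at 0.36-46 umol/L. After 2 hr RT and 16 hr 37 C, fixed adherent GFP cells were counted; normalized to DMSO and tomatine.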

Activity change, negative = inhibition, inactive:
Cc1cccc(OCCCCn2c(C3CC(=O)N(c4ccc(C)cc4C)C3)nc3ccccc32)c1 (stereo unspecified) -19.2%
O=C(CCn1c(=O)c2cccn2c2cccnc21)N1CCN(c2ccc(Cl)cc2)CC1 4.89%
Cc1ccc(S(=O)(=O)N2CCCc3cc(NC(=O)c4c(F)cccc4F)ccc32)cc1 -4.34%
CCc1ccc(C2=C(C)C(N3CCC(C(=O)NCc4ccc(C)o4)CC3)=NS2(=O)=O)cc1 5.89%
CCCCNC(=O)[C@@H](c1ccccc1)N1Cc2ccccc2C1=O 1.54%
Cc1ccc(C(=O)Nc2ccc(F)cc2)cc1S(=O)(=O)N1CCOCC1 3.19%
Cc1ccc(-n2c(=O)c3ccc(C(=O)NCc4ccccc4Cl)cc3n(CC(N)=O)c2=O)cc1 0.119%
CCOc1ccccc1NC(=O)CSc1nccn1Cc1ccc(F)cc1 2.01%
O=C(OCC1CCCO1)c1ccc2c(c1)N(Cc1ccccc1F)C(=O)c1ccccc1S2(=O)=O (stereo unspecified) 0.791%
Cc1ccc(NC(=O)C2CCN(c3ncccn3)CC2)cc1F 8.2%
COc1ccccc1OCCn1c(NC(=O)c2ccccc2)nc2ccccc21 2.54%
O=C(COc1cccc(Cl)c1)N1CCC(c2nc3ccccc3s2)CC1 -8.38%
COc1cc(OC)c(NC(=O)Nc2sc3nc4n(c(=O)c3c2C)CCC(C)CC4)cc1Cl (stereo unspecified) -30.5%
Cc1ccc(CCNC(=O)c2ccc(Cn3c(=O)c4cccn4c4cccnc43)cc2)cc1 -32%
COc1ccc(NC(=O)CSc2nc3ccccc3n2CC(=O)Nc2cccc(C)c2C)cc1 -13.5%
O=S(=O)(Nc1ccc(-c2ccc(N3CCCC3)nn2)cc1)c1ccccc1Cl 7.98%
O=C(O)c1cccc(NC(=O)c2cccc(S(=O)(=O)Nc3cccc(F)c3)c2)c1 -0.71%
N#Cc1c[nH]n2c(NC3CCCC3)c(-c3ccc(Br)cc3)nc12 0.55%
Cc1cc(C)cc(NC(=O)c2cc(S(=O)(=O)N3CCOCC3)cn2C)c1 2.52%
Cc1ccc(N2CCN(c3nc4ccccc4n4nnnc34)CC2)c(C)c1 4.25%
CCOC(=O)c1cccc(NC(=O)C2(S(=O)(=O)c3ccc(C)cc3)CC2)c1 3.23%
O=C(CSc1nc2c([nH]c3ccccc32)c(=O)n1-c1cccc(C(F)(F)F)c1)N1CCCC1 5.85%
COc1cn(CC(=O)Nc2ccc(C)cc2C)c(CN2CCCCC2)cc1=O -3.94%
Cc1cc2c(cc1S(=O)(=O)N1CCC(C(N)=O)CC1)OCC(=O)N2 8.62%
Cc1ccc(Nc2c(-c3ccc(N4CCOCC4)cc3)nc3ccc(Cl)cn23)cc1 3.94%
CCOc1ccc(C2c3c(oc4ccccc4c3=O)C(=O)N2Cc2ccc3c(c2)OCO3)cc1 (stereo unspecified) -17.3%
Cc1cccc(-c2nnn3c2nc(NCCC(C)C)c2ccccc23)c1 27.5%
COc1ccc(S(=O)(=O)NCC(c2ccc(N(C)C)cc2)N2CCCC2)cc1F (stereo unspecified) 0.532%
CCCNC(=O)C1CCC(Cn2c(=O)c3sccc3n(CC(=O)N3CCCC(C)C3)c2=O)CC1 (stereo unspecified) 4.22%
CCOc1cccc(C2c3c(oc4ccc(F)cc4c3=O)C(=O)N2CCOC)c1 (stereo unspecified) 8.63%
Oc1ccc(C2CCN(c3ccnc4ccccc34)CC2)cc1O 19%
Cc1ccc(Cl)cc1N1CCN(S(=O)(=O)c2ccc3oc(=O)c4ncn(C)c4c3c2)CC1 -3.58%
Cc1ccccc1Cn1cc(NC(=O)c2cc(-c3ccc(Cl)cc3)on2)cn1 1.57%
Cc1nn(-c2ccc(N3CCCC3)nn2)c(C)c1CCC(=O)NCc1ccc(F)cc1 -17.9%
CC(C)OCCCn1c(=O)c2ccccc2n2c(-c3ccc(F)c(F)c3)nnc12 24.6%
Cc1ccc(S(=O)(=O)c2nnn3c2nc(NCc2ccc(F)cc2)c2sccc23)cc1C 1.59%
CCCS(=O)(=O)N1CC(=O)N(c2ccccc2C)C(C)(C(=O)NC2CCCCC2)C1 (stereo unspecified) 3.68%
O=C(Nc1cccc(-c2nc3cc(Cl)ccc3o2)c1)c1ccc(F)cc1 4.22%
O=C(Cn1c(=O)n(Cc2ccc(F)cc2)c(=O)c2sc3ccccc3c21)NCc1ccccc1 36.6%
O=C(NCc1noc2ccccc12)N1CCN(c2ccccc2F)CC1 10.2%
O=C(CSC1=Nc2ccccc2C2=NC(Cc3ccccc3)C(=O)N12)Nc1ccccc1 (stereo unspecified) -11.6%
COc1cccc(OCc2nc3ccccc3n2C)c1 -5.03%
Cc1ccc(C)c(Cn2c(C(C)NC(=O)c3ccccc3)nc3ccccc32)c1 (stereo unspecified) -22.6%
Cc1nc2ccc(S(=O)(=O)N(CC(=O)Nc3cccc(C)c3C)Cc3ccccc3)cc2s1 2.75%
O=C(Cn1c(=O)oc2cc(S(=O)(=O)N3CCCC3)ccc21)Nc1ccc(OC(F)(F)F)cc1 -21.7%
Cc1ccc(NC(=O)C2CCC(CNS(=O)(=O)c3cccc4nsnc34)CC2)c(C)c1 (stereo unspecified) 0.659%
COc1ccc(-c2nc3sc(CCNC(=O)C(=O)Nc4ccc(C)cc4C)c(C)n3n2)cc1 -3.29%
COc1ccc(Cn2c(CCC(=O)Nc3cccc(Cl)c3)nc3cccnc32)cc1 -5.86%
COc1ccc(-c2ccc(NS(=O)(=O)c3ccccc3Cl)cc2)nn1 9.92%
CCOc1cccc2cc(-c3nc(-c4ccc(Cl)cc4)c(C)s3)c(=O)oc12 -2.61%
CCc1ccc(-c2cn3c(n2)sc2cc(C(=O)NCCCc4ccccc4)ccc23)cc1 -6.54%
CCOc1ccc(C(c2c(C)[nH]n(-c3ccccc3)c2=O)c2c(C)[nH]n(-c3ccccc3)c2=O)cc1OC -28.9%
Cc1cccc(C(=O)NCC(=O)OCc2cc(=O)n3nc(C)sc3n2)c1 9.14%
CC(Oc1ccccc1)C(=O)Nc1ccc(C(=O)OCc2cc(=O)n3ccsc3n2)cc1 (stereo unspecified) 6.26%
N#Cc1nc(/C=C/c2ccc(F)cc2)oc1N1CCCCC1 23%
CCOc1ccccc1NC(=O)CN1Cc2ccccc2C1=O -5.44%
COC(=O)[C@H](c1ccccc1Cl)N1CCc2sccc2C1 1.14%
CC(C)(C)COc1ccc(-n2cc(C(=O)O)cn2)cc1C#N 10.8%
Cc1ccc(Cn2cc3c(n2)-c2c(oc(C(=O)Nc4ccc(F)cc4F)c2C)CC3)cc1 4%
Cc1nc(SCC(=O)Nc2ccc(Cl)cc2C(F)(F)F)[nH]c(=O)c1Cc1ccccc1 -26.9%
COc1ccc(CNC(=O)c2ccc3c(Cl)c4c(nc3c2)CCCC4)c(OC)c1 1.54%
Cc1cc(-c2ccccc2)nc2cc(C(=O)Nc3cc(C(F)(F)F)ccc3Cl)nn12 13%
Cc1cccc(Nc2cc(C)nc3nc(Cc4ccc(Cl)cc4)nn23)c1 -1.64%
O=C(Nc1cc(-c2nc3cc(Cl)ccc3o2)ccc1Cl)c1cc2ccccc2o1 -7.42%
CN(Cc1ccccc1)S(=O)(=O)c1ccc(F)c(C(=O)Nc2cc(Cl)cc(Cl)c2)c1 -5.88%
CC(=O)c1cccc(NC(=O)c2ccc3c(c2)c(C)c(C)n3Cc2ccc(Cl)cc2)c1 -8.7%
COc1cc(OC)c(NC(=O)CSCc2nc(-c3ccc(OC)c(OC)c3)no2)cc1Cl 5.76%
Cc1ccc(C)c(N2CCN(S(=O)(=O)c3ccc4c(c3)n(C)c(=O)c(=O)n4C)CC2)c1 -0.907%
O=C(NCc1ccccc1)c1ccc(Cn2c(=O)c3cccn3c3cccnc32)cc1 2.72%
COc1ccc(OC)c(NC(=O)c2cnc(N3CCCC3)nc2C)c1 8.72%
Cc1ccc(C2C=C(c3ccc(F)cc3)Nc3nc(CCCO)nn32)cc1 (stereo unspecified) 16.4%
NC(=O)N1CCC(CC(=O)N2CCC([C@H]3c4ncc(Br)cc4CCc4cc(Cl)cc(Br)c43)CC2)CC1 15.6%
CCOc1ccc(C(=O)c2cn(Cc3ccccc3)c3c(F)cc(F)cc3c2=O)cc1 -25.6%

outcome, inactive:
Cc1nn(CC(=O)NCc2ccccc2Br)c(=O)c2cc3occc3n12
CCn1c(CNC(=O)C23CC4CC(CC(C4)C2)C3)nnc1SCC(=O)Nc1ccc(OC)cc1
Cc1ccc(-n2c(SCC(N)=O)nc3c(oc4ccccc43)c2=O)cc1
CCOc1ccccc1NC(=O)C(C)n1nnc2sc3c(c2c1=O)CCCC3 (stereo unspecified)
COc1cccc(C(=O)Nc2ccccc2SCc2cc(=O)c3cccc(C)c3[nH]2)c1
COc1cccc(C(=O)Nc2ccc(-c3nc4ccc(C)cc4s3)cc2)c1OC
CC(=O)c1ccc(NC(=O)/C=C/c2ccc(C)o2)cc1
Cc1cc(C)c(NC(=O)Cn2nnc(-c3nc(-c4ccncc4)no3)c2N)c(C)c1
CC(=O)C1=C(c2ccc(C)cc2)N(C(C)=O)n2c(nnc2-c2ccccc2)S1
Cc1[nH]c2ccc(C(=O)NCCc3ccccc3Cl)cc2c1C
Cc1cccc(NC(=O)CN2C(=O)COc3ccc(S(=O)(=O)Nc4ccccc4)cc32)c1C
Cc1cccc(OCC(=O)NCC2(N3CCN(C)CC3)CCCCC2)c1
COc1ccc(Nc2cc(C(=O)NCc3ccccc3)c3ccccc3n2)cc1
CCC1CN(C(=O)N2CCC(C(=O)NCc3ccc(C)o3)CC2)c2ccccc2O1 (stereo unspecified)
Cc1ccc(OCCSc2nc3ccccc3n2CC(=O)N2CCCCC2)c(C)c1
O=C(CCn1cnc2onc(-c3ccc(F)cc3)c2c1=O)N1CCN(c2ccccc2)CC1
Cc1nc(N2CCOCC2)c2c(C(=O)N3CCN(c4ccc(Cl)cc4)CC3)c(C)oc2n1
COc1ccc(-c2nsc(NC(=O)c3cccc(OC)c3)n2)cc1
COC(=O)c1ccc(CN(Cc2ccc(OC)c(OC)c2)S(=O)(=O)c2ccc(F)c(C(=O)Nc3cc(C)ccc3C)c2)cc1
CCc1nn2c(=O)cc(COC(=O)c3cccs3)nc2s1
CCOC(=O)c1ccc(NC(=O)Cn2cc(S(=O)(=O)Cc3ccccc3F)c3ccccc32)cc1
CCn1cc(C(=O)NCCCOC(C)C)c(=O)c2cc(S(=O)(=O)N(C)C3CCCCC3)ccc21
CCOC(=O)c1c(-c2ccccc2)csc1NC(=O)c1cc(-c2cccc(Cl)c2)on1
